Test results reported in patent US10905774B2, “Nanocage and use thereof” (KOREA INSTITUTE OF SCIENCE AND TECHNOLOGY, priority 2016, dated 2021).

T1: Mouse CD47 (Mus musculus, UniProt Q61735)
T1 sequence (Q61735 19-303): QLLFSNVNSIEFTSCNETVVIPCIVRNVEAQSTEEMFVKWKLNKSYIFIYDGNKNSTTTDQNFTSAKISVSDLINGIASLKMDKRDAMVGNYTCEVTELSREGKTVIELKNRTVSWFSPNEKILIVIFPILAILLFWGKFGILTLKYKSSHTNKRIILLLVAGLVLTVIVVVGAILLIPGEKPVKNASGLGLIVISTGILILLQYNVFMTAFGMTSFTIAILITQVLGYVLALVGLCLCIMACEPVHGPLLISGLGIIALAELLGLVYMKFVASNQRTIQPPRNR


How the values were obtained:
[1] = target: Human CD47 (Homo sapiens); assay: Surface plasmon resonance (SPR) analysis of affinities and kinetics of binding to human CD47
Procedure: (§1) The present inventors performed fluorescence microscopy to confirm whether the FH-SIRPα HV nanocage prepared in Example 1 specifically binds to CD47 on the surface of cancer cells. Specifically, CT26 mouse colorectal cancer cell line and HT29 human colorectal cancer cell line were inoculated at a concentration of 3×10^4 cells/ml. Then, after treating 400 nM of FH-SIRPα HV nanocage prepared in Example 1-1 or same amount of wild-type ferritin heavy chain nanocage as control group, anti-ferritin primary antibody (Abcam, Cambridge, UK) and FITC-conjugated anti-mouse rabbit secondary antibody (Jackson ImmunoResearch, Suffolk, UK) were treated and then fluorescence microscopic images were obtained. […] The affinities and kinetics of FH-SIRP α HV nanocage binding human or mouse CD47 were analyzed by surface plasmon resonance (SPR) analysis and the results are shown in Table 1 below.

Mouse CD47 = target: T1, Mouse CD47; assay: Surface plasmon resonance (SPR) analysis of affinities and kinetics of binding to mouse CD47
Procedure: as §1

[2] = test system: CD47 on the surface of cancer cells (CT26 mouse and HT29 human colorectal cancer cell lines); assay: Fluorescence microscopy of nanocage binding to cancer cells; assay type: cell-based; settings: 400 nM
Procedure: as §1

[3] = test system: Raji, HT-29, 4T1, CT26 and CT26.CL25 cancer cells co-cultured with BMDMs; assay: Phagocytosis of cancer cells by bone marrow-derived macrophages (FACS); assay type: cell-based, human, mouse; settings: 400 nM
Text: (§2) Particularly, the present inventors observed the phagocytic action of macrophages and dendritic cells against tumor cells through FACS analysis. First, 3×10^5 cells/ml of bone marrow-derived macrophages (BMDMs) pre-stained with CellTracker Green (Thermo Fisher Scientific, USA) and (a) 1.25×10^6 cells/ml of human Raji Burkitt lymphoma cells, (b) human HT-29 colorectal cancer cells, (c) mouse 4T1 breast cancer cells, (d) mouse CT26 colorectal cancer cells and (e) mouse CT26.CL25 colorectal cancer cells overexpressing β-galactosidase pre-stained with pHrodo Red SE, respectively were seeded in RPMI medium and buffer only (control), the ferritin-SIRPα fusion nanocage (FH-SIRPα HV) of the present invention, the wild-type ferritin heavy chain nanocage (wtFH) and the monomeric SIRPα (mSIRPα) were treated at the concentration of 400 nM, respectively. […] The phagocytosis rate was determined by the following formula. […]

[4] = test system: Raji, HT-29, 4T1, CT26 and CT26.CL25 cancer cells co-cultured with BMDCs; assay: Phagocytosis of cancer cells by bone marrow-derived dendritic cells (FACS); assay type: cell-based, human, mouse; settings: 400 nM
Text: as §2

HT29 cells per BMDM cell = assay: Phagocytosis index (PI) by microscopic observation; assay type: cell-based, human; settings: number of cancer cells per BMDM cell, microscopy
Text: In addition, the phagocytosis rate of cancer cells by bone marrow-derived macrophages (BMDMs) was quantitated as a phagocytosis index (PI) expressed as a percentage by counting the number of cancer cells per BMDM cell by microscopic observation.

CT26.CL25 cancer cells [5] = assay: In vivo cancer growth inhibition, intratumoral nanocages; set-up: species or system Balb/c wild-type mice; settings: CT26.CL25 subcutaneous; intratumoral 28 mg/kg
Procedure: (§3) The antitumor activities of the ferritin heavy chain nanocage prepared in Examples 1-1 to 1-5 and the doxorubicin nanocage complex prepared in Example 3 were examined. Particularly, Balb/c wild type mice were used as the experimental animals, and experiments on the above experimental animals were carried out according to the regulations of the KIST animal ethics committee.
First, in order to measure the in vivo anticancer activity of the various ferritin heavy chain nanocages prepared in Examples 1-1 to 1-5, 1×10^6 cells of CT26.CL25 cancer cells expressing β-galactosidase were subcutaneously injected on the left side of Balb/c wild-type mice in order to induce cancer and then each experimental substance (buffer only, FH-mSIRPα WT, FH-SIRPα HV, FH-SIRPγ WT and FH-SIRPγ V2) was injected intratumorally at dose of 28 mg/kg) after 5 day of tumor inoculation, and the length (L) and the width (W) of the tumor tissues were measured using a caliper at intervals of 3 days (FIG. 7A), and then the volume of tumor tissue was calculated using the following formula: Tumor tissue volume (V [mm^3])=(L [mm])×(W [mm])^2×0.5

CT26.CL25 cancer cells [6] = assay: In vivo cancer growth inhibition, tail vein injection of doxorubicin nanocage complex and comparators; set-up: species or system Balb/c wild-type mice; settings: tail vein 1 mg/kg, five injections at interval of 3 days
Procedure: as §3
In addition, the present inventors investigated the in vivo anticancer activity of the doxorubicin-encapsulated nanocage complex prepared in Example 3 above. Particularly, 1×10^6 cells of CT26.CL25 cancer cells were subcutaneously injected into the above Balb/c wild-type mice to induce cancer. […] Further, the volume of the tumor tissue over time before the sacrifice of the experimental animals was recorded from 7 days after the injection of cancer cells at the interval of 3 days by calculating using the following formula after measuring length (L) and width (W) of tumor tissues using a caliper: Tumor tissue volume (V [mm^3])=(L [mm])×(W [mm])^2×0.5

[7] = test system: interferon-gamma (INF-γ) of T cells specific to CT26.CL25 antigens; assay: Antigen-induced INF-γ of splenocytes (ELISA); assay type: in vivo, mouse; settings: splenocytes of treated animals, β-Gal peptide or AH1 peptide 5 μg/ml, 24 hours
Text: The present inventors investigated the cellular immunity against CT26.CL25 cancer cells in mouse spleen by doxorubicin-loaded FH-SIRPα HV nanocage complex in order to confirm whether the above-described immune response was cancer cell-specific. That is, the level of interferon-gamma (INF-γ) of T cells specific to β-galactosidase, an antigen of CT26.CL25, was quantified by ELISA (R&D Systems, Inc., USA). Three mice per group were selected from the mice treated in the same manner as in Experimental Example 3-1, the spleen was removed from each mouse, the spleen tissue was transferred to a sterilized petri dish, and the spleen tissue was ground using a cell strainer. And then cells were separated from the tissue epithelium. All the contents in the Petri dish were transferred to a 15 ml tube, filled with RPMI 1640 medium, centrifuged at 1,500 rpm for 5 minutes. After removing supernatant, red blood cells lysis buffer (Sigma-Aldrich, Germany) were added to pellet in order to hemolyze red blood cells. Cells contained in the tubes were washed with PBS and then suspended in RPMI 1640 medium to isolate splenocytes. […] The supernatant was then separated and level of INF-γ was quantified by ELISA (R&D Systems, Inc, USA).

[8] = test system: secondary cancer transplanted to other site; assay: Anticancer memory effect: secondary tumor rechallenge and survival; assay type: in vivo, mice; settings: after 80 days of tumor rechallenge
Text: The present inventors have hypothesized that the effect of FH-SIRPα nanocage according to an embodiment of the present invention is due to the recruiting of immune cells from the results of Experimental Example 3. Thus, the present inventors analyze growth of secondary cancer transplanted to other site and counted survival rate of the experimental animals after excising primary tumor tissues from the experimental animals.

[9] = test system: HT29 human colon cancer cells; assay: Flow cytometry of nanocage binding to HT29 cancer cells; assay type: cell-based; settings: 20, 200, 400 or 600 nM
Procedure: In order to confirm the affinity of cancer cells for nanocages produced using various SIRP proteins prepared in Examples 1-2 to 1-5, respectively in addition to the nanocage prepared in Example 1-1, flow cytometry was performed. Particularly, HT29 human colon cancer cells were seeded into 2×10^5 cells/ml and the wild-type ferritin heavy chain nanocage as a control group, the FH-SIRPα HV nanocage prepared in Example 1-1, the FH-hSIRPα WT nanocage prepared in Example 1, the FH-SIRPγ WT nanocage prepared in Example 1-3 and the FH-SIRPγ V2 nanocage prepared in Example 1-5 were treated at the concentration of 20, 200, 400 or 600 nM, respectively, and the degree of cell binding was measured. Particularly, after treating anti-ferritin heavy chain primary antibody (Abcam, Cambridge, UK, 1:200) and an Alexafluor 488-conjugated donkey anti-rabbit secondary antibody (Jackson ImmunoResearch, Suffolk, UK, 1:400), the cells were sorted according to fluorescence intensity through flow cytometry analysis.

[10] = test system: CT26.CL25 mouse colon cancer cells; assay: Phagocytosis rate of CT26.CL25 cells by bone marrow-derived macrophages (counting phagocytized cells); assay type: cell-based; settings: BMDMs cocultured with CT26.CL25 at 37° C. for 4 hours
Procedure: After the staining, phagocytosis rate of macrophages against cancer cells were determined by counting phagocytized cancer cells by the macrophages.

[11] = CT26.CL25 cells overexpressing β-galactosidase

Molecule | ka [1] | kd [1] | ka (Mouse CD47) | kd (Mouse CD47) | binding to cancer cells (FITC fluorescence) [2] | phagocytosis of CT26.CL25 cells by macrophages compared with recombinant SIRPα [3, 11] | phagocytosis of cancer cells by macrophages (BMDMs) ([3]; compared with control group) | phagocytosis of CT26.CL25 cells by dendritic cells compared with recombinant SIRPα [4, 11] | phagocytosis of cancer cells by dendritic cells (BMDCs) ([4]; compared with control group) | phagocytosis index (PI) (HT29 cells per BMDM cell) | antitumor activity (tumor growth) (CT26.CL25 cancer cells [5]) | anticancer effect (growth of cancer cells) (CT26.CL25 cancer cells [6]) | expression of IFN-γ [7] | survival rate [8] | degree of cell binding [9] | phagocytic activity against cancer cells [10]
FH-SIRPα HV: Nanocage self-assembled from fusion of human ferritin heavy chain (SEQ ID NO: 1), linker and SIRPα high-affinity variant (SEQ ID NO: 12) (protein) [about 200 residues not written out]KESGSVSSEQLAQFRSLDEEELQIIQPDKSVLVAAGETATLRCTITSLFPVGPIQWFRGAGPGRVLIYNQRQGPFPRVTTVSDTTKRNNMDFSIRIGNITPADAGTYYCIKFRKGSPDDVEFKSGAGTELSVRAKP | 5e+06 M⁻¹ s⁻¹ | 2.4e-07 s⁻¹ | 1.1e+06 M⁻¹ s⁻¹ | 0.00041 s⁻¹ | binds well to cancer cells | nearly doubled | significantly increased | remarkably increased | significantly increased | significantly higher than recombinant SIRPα | very good antitumor activity | excellent anticancer activity | increased significantly | 80% | – | –
FH-SIRPγ V2 nanocage: Ferritin heavy chain nanocage of fusion protein with SIRPγ HV2 (SEQ ID NO: 100), 27th amino acid not substituted (protein) [about 200 residues not written out]KESGSVSSEQLAQFRSLDEEELQIIQPEKLLLVTVGKTATLHCTVTSLFPVGPVLWFRGVGPGRVLIYNQRQGPFPRVTTVSDTTKRNNMDFSIRISSITPADVGTYYCIKFRKGSPENVEFKSGPGTEMALGAKP | – | – | – | – | – | – | – | – | – | – | very good antitumor activity | – | – | – | equivalent to the performance of SIRPα HV nanocage | higher phagocytosis activity against cancer cells
